# Results: the antibiotic and cytotoxicity screens of Wong et al. (2023)
# Some of the results follow.
# Test system: HSkMC (human skeletal muscle cells)
# Experiment: cytotoxicity call (relative viability < 0.9)
# Conditions: 10 µM
row,SMILES,cytotoxicity call
1,COCC(=O)Nc1ccc2c(c1)C(=O)N(C)[C@H]1CC[C@@H](CC(=O)NC3Cc4ccccc4C3)O[C@@H]1CO2,inactive
2,COc1ccc([C@@H]([C@H](Cc2ccccc2)OC(C)=O)N2C[C@H](CC(=O)N(C)C)[C@@H]3[C@H]([C@@H]2Cc2ccccc2)N(C)O[C@H]3c2ccccc2)cc1,inactive
3,C[C@@H]1CN([C@H](C)CO)C(=O)c2cc(NC(=O)CCCN(C)C)ccc2O[C@@H]1CN(C)S(=O)(=O)c1cccs1,inactive
4,Nc1cc(=O)nc(N)[nH]1,inactive
5,C[C@H](CO)N1C[C@H](C)[C@H](CN(C)C(=O)NC2CCCCC2)Oc2ccc(NC(=O)Nc3ccc(C(F)(F)F)cc3)cc2CC1=O,inactive
6,C[C@H]1CN([C@@H](C)CO)C(=O)Cc2cc(NC(=O)CCCCCC(=O)Nc3ccccc3N)ccc2O[C@@H]1CN(C)Cc1ccc(C(F)(F)F)cc1,inactive
7,C[C@@H]1CN([C@H](C)CO)C(=O)c2cccc(NC(=O)c3ccncc3)c2O[C@@H]1CN(C)Cc1ccc(-c2ccccc2)cc1,inactive
8,COc1ccc(C#Cc2ccc([C@H]3[C@@H](CO)N4CCCCN(S(=O)(=O)c5cn(C)cn5)C[C@H]34)cc2)cc1,active
9,O=C1NCCC[C@@H]1C(=O)N1CCCCC1,inactive
10,COc1ccc(NC(=O)N(C)C[C@H]2OCCCC[C@@H](C)Oc3ccc(NS(=O)(=O)c4ccccc4)cc3C(=O)N([C@@H](C)CO)C[C@H]2C)cc1,inactive
11,C[C@H]1CN([C@@H](C)CO)C(=O)Cc2cc(NC(=O)NC3CCCCC3)ccc2O[C@@H]1CN(C)C(=O)Nc1cccc2ccccc12,inactive
12,COc1ccc(CN(C)C[C@H]2OCCCC[C@@H](C)Oc3ccc(NS(=O)(=O)c4ccc(C)cc4)cc3C(=O)N([C@@H](C)CO)C[C@@H]2C)cc1,inactive
13,COc1ccc(NC(=O)Nc2cccc3c2O[C@H](CN(C)C(=O)Nc2ccc(C(F)(F)F)cc2)[C@@H](C)CN([C@@H](C)CO)C3=O)cc1,inactive
14,COc1ccc(NC(=O)N(C)C[C@@H]2Oc3ccc(NC(=O)CCN4CCOCC4)cc3C(=O)N([C@@H](C)CO)C[C@@H]2C)cc1,inactive
15,Cc1ccc(S(=O)(=O)N(C)C[C@H]2OCCCC[C@@H](C)Oc3ccc(NC(=O)Nc4ccc(C(F)(F)F)cc4)cc3C(=O)N([C@@H](C)CO)C[C@H]2C)cc1,inactive
16,NCc1ccc2c(c1)CCO2,inactive
17,O=C(C[C@@H]1C[C@@H]2c3cc(NC(=O)c4ccc5c(c4)OCO5)ccc3O[C@@H]2[C@H](CO)O1)NCc1ccccn1,inactive
18,C[C@H]1CN([C@@H](C)CO)C(=O)c2cc(NC(=O)Nc3ccc(F)cc3)ccc2O[C@@H]1CN(C)Cc1ccc(C(F)(F)F)cc1,inactive
19,C[C@H]1CCCCO[C@@H](CN(C)CC2CC2)[C@@H](C)CN([C@@H](C)CO)C(=O)c2cc(NC(=O)Nc3ccc(F)cc3)ccc2O1,inactive
20,O=C(C[C@@H]1CC[C@H](NC(=O)CN2CCOCC2)[C@@H](CO)O1)NC1CCC1,inactive

row,SMILES,cytotoxicity call
1,COCC#Cc1cnc2c(c1)C(=O)N([C@@H](C)CO)C[C@H](C)[C@H](CN(C)C(C)=O)O2,inactive
2,C[C@@H]1CCCCO[C@@H](CN(C)C(=O)Nc2ccc(F)cc2)[C@@H](C)CN([C@H](C)CO)C(=O)c2cc(NC(=O)NC3CCCCC3)ccc2O1,inactive
3,O=C1CCCSc2ccccc21,inactive
4,CCC(CC)C(=O)N1c2ccccc2Sc2ccccc21,inactive
5,O=C(C[C@@H]1C[C@@H]2c3cc(NC(=O)c4ccc5c(c4)OCO5)ccc3O[C@@H]2[C@H](CO)O1)NCC(F)(F)F,inactive
6,C[C@@H]1CN([C@@H](C)CO)C(=O)c2cc(NS(=O)(=O)c3cn(C)cn3)ccc2O[C@@H](C)CCCCO[C@H]1CN(C)C(=O)Nc1cccc2ccccc12,active
7,C[C@@H]1CN([C@@H](C)CO)C(=O)c2cc(NC(=O)Nc3ccc(F)cc3)ccc2O[C@@H]1CN(C)CC1CCCCC1,inactive
8,Cc1noc(C)c1NC(=O)N[C@H]1C=C[C@H](CC(=O)N2CCN(C)CC2)O[C@H]1CO,inactive
9,C[C@H](CO)N1C[C@H](C)[C@H](CN(C)S(=O)(=O)c2cccs2)OCCCC[C@H](C)Oc2ccc(NC(=O)Nc3ccc(F)cc3)cc2C1=O,inactive
10,Cc1ccc(OC(=O)N(C)C[C@H]2OCc3ccccc3-c3ccccc3C(=O)N([C@H](C)CO)C[C@H]2C)cc1,inactive
11,Cc1ccc(=O)n(CC(=O)O)n1,inactive
12,C[C@@H]1CN([C@@H](C)CO)C(=O)c2cccc(NS(=O)(=O)c3cn(C)cn3)c2O[C@H]1CN(C)Cc1ccncc1,inactive
13,C[C@@H]1CN([C@H](C)CO)C(=O)c2cc(NC(=O)Nc3ccc(C(F)(F)F)cc3)ccc2O[C@H]1CN(C)Cc1ccc(Oc2ccccc2)cc1,inactive
14,CCC(=O)O[C@H]1[C@H](O[C@@H]2[C@@H](C)[C@H](O[C@H]3C[C@@](C)(OC)[C@@H](O)[C@H](C)O3)[C@@H](C)C(=O)O[C@H](CC)[C@@](C)(O)[C@H](O)[C@@H](C)C(=O)[C@H](C)C[C@@]2(C)O)O[C@H](C)C[C@@H]1N(C)C,inactive
15,N#CCC(=O)N1CCSCC1,inactive
16,COc1ccc(cc1)S(=O)(=O)N1CC[C@]2(CC1)CN([C@@H](CO)c1c2c2ccc(cc2n1C)OC)C(=O)CN(C)C,inactive
17,C[C@@H]1CN([C@H](C)CO)C(=O)c2cc(NC(=O)Nc3ccc(C(F)(F)F)cc3)ccc2O[C@H]1CN(C)C(=O)Nc1ccc2c(c1)OCO2,inactive
18,O.O=C(O)C1C(O)CCC2CN3CCc4c([nH]c5ccccc45)C3CC21 (centres undefined),inactive
19,C[C@H]1CN([C@@H](C)CO)C(=O)Cc2cc(NC(=O)NC3CCCCC3)ccc2O[C@@H]1CN(C)Cc1ccc(Oc2ccccc2)cc1,inactive
